The values below come from ChEMBL document CHEMBL4888484, “Replenishing the malaria drug discovery pipeline: Screening and hit evaluation of the MMV Hit Generation Library 1 (HGL1) against asexual blood stage Plasmodium falciparum ,using a nano luciferase reporter read-out” (2022).

The campaign covered roughly 150,000 compounds. About 540 (0.36%) showed an effect of 50% or more. Some of the results follow.

The assay concerns Plasmodium falciparum. The assay is described as follows: Primary screen in NF54 nanoGlo assay, in single point, at 2uM, 72h; a lower Z score goes with more inhibition. The assay is classed as functional, Erythrocyte. The note with it: timepoint 72 hour.
`Cn1ccc2ccn(CCOCC(F)(F)C(F)(F)F)c(=O)c21`: the “% Inhibition” value is recorded as -9% and the Z score was 0.86.

Regarding `CN(c1nncs1)S(=O)(=O)c1ccccc1Cl`, the “% Inhibition” value is 4% and the Z score was -0.42.

As for `CC(C)c1nc(-c2snnc2C(C)C)n(-c2ccccn2)n1`, the “% Inhibition” value was -6% and the Z score is reported as 0.89.

Take `O=C(c1ccc2c(c1)OCO2)N1C[C@@H]2CC[C@H]1CN(Cc1ccccn1)C2`: the “% Inhibition” value is -21% and the Z score is on record as 2.12.

`C[C@@H](c1ccc(-c2cc(C#N)n(C)c2)cc1)N(C)C`: the “% Inhibition” value is reported as -9% and the Z score is 1.53.

With `NC1CC(c2cc(NCc3cccnc3)nc(C3CC3)n2)C1` (centres undefined), the “% Inhibition” value is on record as 15% and the Z score is on record as -2.04.

Take `CC(C)c1nnc(NC(=O)c2ccc(=O)n(C)c2)s1`: the “% Inhibition” value is -1% and the Z score came out at 0.08.

In the case of `C1CC(c2nnc(NC[C@H]3CCCO3)o2)C1`, the “% Inhibition” value is listed as 8% and the Z score is on record as -1.09.

On to `C[C@H](NC(=O)Cn1c(=O)ccn(C2CC2)c1=O)C(=O)N1CCCCC1`, for which the “% Inhibition” value is -10% and the Z score worked out at 1.35.

For the compound `Cc1ccc(C)c(N(C)C(=O)Cc2ccc(C)nc2)c1`, the “% Inhibition” value came out at 21% and the Z score is recorded as -2.7.

In the case of `CCCOc1ccc(Nc2cc(C)nc3ccc(Cl)cc23)cc1`, the “% Inhibition” value amounted to 38% and the Z score is reported as -6.17.

For the compound `CCn1ccc2cc(CN(C)CCN3CCCCC3=O)ccc21`, the “% Inhibition” value was determined as 4% and the Z score is on record as -0.55.

With `O=C(Nc1ccc(OCc2nnc(-c3ccccc3)o2)cc1)c1ccoc1`, the “% Inhibition” value is given as -2% and the Z score is listed as 0.24.

For `CN(C)c1ccc(CCc2nc(C3CC3)nn2-c2ccncc2)cc1`, the “% Inhibition” value is -4% and the Z score is on record as 0.45.

With `c1ccc2c(c1)ncn2CC1CCN(Cc2cn3ccccc3n2)CC1`, the “% Inhibition” value was -5% and the Z score was determined as 0.6.

With `O=C(NCc1nccnc1-c1ccoc1)c1cscn1`, the “% Inhibition” value turned out to be 16% and the Z score is given as -1.97.

Turning to `COCCn1ccnc1[C@H]1CC(=O)Nc2nn3c(C)cc(C)nc3c21`, the “% Inhibition” value is given as -3% and the Z score worked out at 0.44.

Regarding `COCc1noc(Cn2ncc(N3CCc4ccccc4C3)cc2=O)n1`, the “% Inhibition” value is -3% and the Z score is 0.45.

With `Cc1nnc(-c2ccc3ccn(CC(=O)NC4CCCCCC4)c3c2)o1`, the “% Inhibition” value was 1% and the Z score is on record as -0.11.

In the case of `O=C([C@H]1CCCN1S(=O)(=O)c1ccccc1)N1CCCc2occc2C1`, the “% Inhibition” value is listed as -8% and the Z score was 1.42.

For the compound `CN(C(=O)C1(C#N)CCCCC1)[C@H]1CCN(CC(F)(F)F)C1=O`, the “% Inhibition” value was -7% and the Z score turned out to be 1.01.

Regarding `COCc1nc2n(n1)C[C@@H](NCc1cccc3[nH]ccc13)CC2`, the “% Inhibition” value turned out to be 3% and the Z score is reported as -0.4.

For `Cc1cncc(NC(=O)C[C@H](O)C(Cl)(Cl)Cl)c1`, the “% Inhibition” value is -8% and the Z score is listed as 1.01.

For `COc1ccccc1[C@@H]1CC(c2ccc(C)cc2)=NN1C(=O)CN(C)C1CCCCC1`, the “% Inhibition” value is on record as -2% and the Z score came to 0.27.

Turning to `Cc1ccc(C(=O)N2CC(=O)c3ccccc3S2(=O)=O)cc1`, the “% Inhibition” value is -43% and the Z score came to 5.

As to `CC(=O)N1CC2(CCN(C(=O)c3cc(C)nc4c3cnn4C)CC2)[C@H]2COC[C@H]21`, the “% Inhibition” value is on record as -1% and the Z score is listed as 0.13.

On to `CN1CCN(C(=O)c2ccc[nH]2)C[C@@]12CCC(=O)N(CC1CC1)CC2`, for which the “% Inhibition” value is -8% and the Z score turned out to be 1.51.

Consider `COc1ccc(Cc2c3cc(OC)c(OC)cc3cc[n+]2CC(=O)c2ccccc2)cc1OC`, for which the “% Inhibition” value is -8% and the Z score is 0.67.

As for `O=C(CCNc1ccc(C(=O)N2CCCCC2)cc1)c1ccc2c(c1)OCO2`, the “% Inhibition” value is listed as -18% and the Z score stood at 1.79.

`CCS(=O)(=O)N1CCC[C@H](C(=O)NC(C)(C)Cc2ccccc2)C1`: the “% Inhibition” value turned out to be 2% and the Z score is -0.22.

Take `Cc1ccc(-c2n[nH]cc2-c2nc3cc(C#N)ccc3[nH]2)cc1`: the “% Inhibition” value is recorded as 19% and the Z score is recorded as -2.42.

Take `CC[C@H](C)NC(=O)c1cn(-c2cccc(C)n2)cn1`: the “% Inhibition” value is on record as 37% and the Z score is recorded as -1.31.

Take `O=C(O)[C@H](Cc1c[nH]c2ccccc12)NC(=O)N1CCC(F)(F)CC1`: the “% Inhibition” value is listed as 3% and the Z score is given as -0.39.

In the case of `O=C(N[C@@H]1C[C@H]2CC[C@@H]1O2)[C@H]1CC[C@@H](c2ccccc2)O1`, the “% Inhibition” value is given as -43% and the Z score was 5.04.

As for `CCOC(=O)[C@H]1CCCN(Cc2nc3nc(C)cc(N4CCCC4)n3n2)C1`, the “% Inhibition” value is recorded as -17% and the Z score worked out at 2.19.

Regarding `COCC1(C(=O)N(C)Cc2nonc2C)CCC1`, the “% Inhibition” value is 1% and the Z score is reported as -0.1.

Regarding `Nc1ncccc1CN1CCC[C@H](Cn2cc(C3(O)CCCC3)nn2)C1`, the “% Inhibition” value is -9% and the Z score came out at 1.12.

Regarding `COc1cc2c(cc1CN(C)CCn1ccnc1C)OCCCO2`, the “% Inhibition” value was -3% and the Z score worked out at 0.55.

Regarding `NC(=O)C1(NC(=O)c2cccc(-c3ccc(CO)cc3CO)c2)CCCC1`, the “% Inhibition” value was -2% and the Z score amounted to 0.27.

As for `Cc1cn2c(n1)CC[C@H](NS(=O)(=O)c1ccc(OC(C)C)cc1)C2`, the “% Inhibition” value was -1% and the Z score was 0.17.

`COc1ccc(NC(=O)N(C)CC(F)(F)F)c(Br)c1`: the “% Inhibition” value is -6% and the Z score came to 0.62.

As to `CNC(=O)N(O)[C@H]1N(C)C(=O)N(C2CCCCC2)C1(C)C`, the “% Inhibition” value is -1% and the Z score came out at 0.23.
